Here are results for 42 compounds from ChEMBL document CHEMBL4888484, “Replenishing the malaria drug discovery pipeline: Screening and hit evaluation of the MMV Hit Generation Library 1 (HGL1) against asexual blood stage Plasmodium falciparum ,using a nano luciferase reporter read-out” (2022).

A word on the % Inhibition: it is the change of the read-out against control, counted positive when it falls.

Each structure is given as a SMILES string. In all, about 150,000 compounds went through this assay and about 540 (0.36%) showed an effect of 50% or more. Some of the results follow.

The assay concerns Plasmodium falciparum. Briefly: Primary screen in NF54 nanoGlo assay, in single point, at 2uM, 72h; a lower Z score goes with more inhibition. As to conditions: timepoint 72 hour. Type of assay: functional, Erythrocyte.
Regarding `OC[C@H]1COc2ccccc2[C@H]1NCc1ccccn1`, the “% Inhibition” value is on record as 6% and the Z score was -0.68.

Consider `Cc1ccc(-c2ncc(C(=O)N3CCCC[C@@H]3CN)c(O)n2)cc1`, for which the “% Inhibition” value is recorded as -8% and the Z score is recorded as 1.15.

On to `CN(C)C(=O)CCCS(=O)(=O)CC(=O)N1CCCCCC1`, for which the “% Inhibition” value is -17% and the Z score turned out to be 1.41.

Consider `O=C(Nc1cccc(-c2ccc(N3CCCCC3)nn2)c1)Nc1ccccc1Cl`, for which the “% Inhibition” value is -3% and the Z score worked out at 0.44.

On to `CN(CCN1CCOCC1)Cc1cccn1S(=O)(=O)c1ccccc1`, for which the “% Inhibition” value is given as -5% and the Z score was determined as 0.59.

With `O=C(COc1ccnc2c1CCCC2)NCc1ccc2c(c1)OCO2`, the “% Inhibition” value is -9% and the Z score was determined as 1.53.

Consider `O=C1CCCN1CCNc1nccc2occc12`, for which the “% Inhibition” value is recorded as -6% and the Z score was found to be 1.16.

`O=C(O)c1cccc(NCC2(O)Cc3ccccc3C2)n1`: the “% Inhibition” value worked out at 0% and the Z score is -0.03.

Consider `Cc1ccc(C(=O)c2ccccc2C(=O)NCC2CC2)cc1C`, for which the “% Inhibition” value is -3% and the Z score is on record as 0.49.

For `Cc1ccc(N2CCN(c3ccc(C)cc3)C2c2ccc(OCc3ccccc3F)cc2)cc1`, the “% Inhibition” value was 1% and the Z score is on record as -0.12.

For the compound `CC1CCCN(C2CCC(=O)N(Cc3cccc(F)c3)CC2)C1` (centres undefined), the “% Inhibition” value was -1% and the Z score stood at 0.21.

With `CN(C)C(=O)[C@H]1CCCN(Cc2cccn2C)C1`, the “% Inhibition” value was -6% and the Z score is on record as 1.08.

For `Cn1ccc2c(-c3cc(C(=O)N4CCOCC4)ccn3)ccnc21`, the “% Inhibition” value is -22% and the Z score amounted to 2.39.

For `CC(=O)N1CC2(CCN(C/C=C/c3ccccc3)CC2)C[C@H]1C(=O)O`, the “% Inhibition” value is -10% and the Z score is 0.95.

Turning to `CCOc1ccc(NC(=O)N(C)C[C@H](C)c2nccs2)cn1`, the “% Inhibition” value is on record as 3% and the Z score was -0.41.

Take `O=C(NCc1nc2ccccc2s1)N1CCCC1`: the “% Inhibition” value is given as -6% and the Z score turned out to be 1.26.

With `O=C(Nc1ccc2c(c1)CCCN2)N1CCO[C@H](c2nccs2)C1`, the “% Inhibition” value is -11% and the Z score is listed as 1.65.

Consider `CCCc1nc(C)c(C(=O)N2CC[C@H](CN)C2)s1`, for which the “% Inhibition” value is given as 1% and the Z score was -0.09.

`COc1cccc(-c2c[nH]c([C@@H]3COCCN3C3CCOCC3)n2)c1`: the “% Inhibition” value is -7% and the Z score is given as 0.84.

For `CCC(=O)Nc1nnc(C(CC)CC)s1`, the “% Inhibition” value is given as -18% and the Z score came out at 2.59.

Regarding `CCN1C(=O)c2cc(S(=O)(=O)Nc3ccc(C)cc3F)ccc2Oc2cccnc21`, the “% Inhibition” value is -5% and the Z score is 0.79.

Take `CCc1ccc(C(C)NC2CCOc3c(F)cccc32)cc1` (centres undefined): the “% Inhibition” value was -10% and the Z score stood at 1.81.

For the compound `Cc1cc(C(=O)N2CCC3(CCC(=O)N(CCc4cccnc4)C3)CC2)[nH]n1`, the “% Inhibition” value was found to be 3% and the Z score is recorded as -0.36.

As to `COc1ccccc1N1CCN(C(=O)Cn2ccc3ccc(N4CCOCC4)nc32)CC1`, the “% Inhibition” value is given as 3% and the Z score is -0.55.

In the case of `Cc1cc(CNC(=O)[C@@H]2COCC(=O)N2Cc2ccccc2)on1`, the “% Inhibition” value is on record as -7% and the Z score was 0.66.

For `CN(C)C(=O)c1cncc(C2=CN(C(=O)OC(C)(C)C)CCCC2)c1`, the “% Inhibition” value was -2% and the Z score turned out to be 0.38.

Turning to `CCc1ccc(C(=O)N2CCc3[nH]nc(C(=O)NC4CCN(C)CC4)c3C2)cc1`, the “% Inhibition” value is listed as 6% and the Z score is reported as -0.98.

For the compound `Cc1ccc(S(=O)(=O)N2CCC(C(=O)OCC(=O)N3CCN(S(C)(=O)=O)CC3)CC2)cc1`, the “% Inhibition” value is listed as -6% and the Z score stood at 1.14.

On to `CN(CCC(=O)c1ccccc1)Cc1ncnn1C`, for which the “% Inhibition” value is listed as -8% and the Z score was found to be 0.77.

On to `CCNc1ncc(C(=O)N[C@H]2CC(=O)N(CC(F)(F)F)C2)s1`, for which the “% Inhibition” value is -7% and the Z score was 1.13.

For the compound `Nc1nnc(C2CCN(C(=O)CC3CC4CCC3C4)CC2)o1` (centres undefined), the “% Inhibition” value is -1% and the Z score was found to be 0.1.

Take `O=C(c1ccco1)N1CCN(c2nccn3nc4c(c23)CCCC4)CC1`: the “% Inhibition” value is reported as -11% and the Z score is on record as 1.4.

For `O=C(NC1CCCC1)C1CC2CCC1C2` (centres undefined), the “% Inhibition” value was 11% and the Z score is on record as -1.06.

As for `CC(C)Cn1cncc1CN1CCOC2(CCCC2)C1`, the “% Inhibition” value is -15% and the Z score was determined as 1.61.

On to `O=C(NC1CCCCC1)c1c(OCC2CC2)cc(=O)n2c1CCOCC2`, for which the “% Inhibition” value is recorded as -12% and the Z score was found to be 1.42.

In the case of `O=C(O)c1cc(NS(=O)(=O)c2cccc(F)c2)ccc1N1CCCCCC1`, the “% Inhibition” value is reported as -9% and the Z score is 0.84.

In the case of `CN(Cc1ccc2nsnc2c1)C(=O)CCC(=O)Nc1nncs1`, the “% Inhibition” value is -15% and the Z score is recorded as 1.48.

`Cc1nc(-c2ccc(Cl)c(S(=O)(=O)N3CCC[C@H](C(=O)NC4CCC(C)CC4)C3)c2)no1` (some centres undefined): the “% Inhibition” value is -12% and the Z score is listed as 1.56.

Regarding `CC[C@H](Nc1cncc(-n2ccnc2C)n1)c1cccs1`, the “% Inhibition” value was -5% and the Z score is given as 0.48.

Turning to `Cc1cnc(C(=O)N2CCC(CCn3c(C)cnc3C3CCC3)CC2)cn1`, the “% Inhibition” value is listed as -9% and the Z score is reported as 1.17.

With `O=C1N[C@H]2C[C@@H](C(=O)NC[C@@H]3CCC[C@@H](CCOc4ccccc41)O3)N(Cc1ccc(F)cc1)C2`, the “% Inhibition” value is recorded as -4% and the Z score is recorded as 0.6.

On to `CCCNc1ncc(CN2C[C@H](CO)[C@H](CN3C[C@@H](C)O[C@@H](C)C3)C2)cn1`, for which the “% Inhibition” value is given as -12% and the Z score came to 1.25.
